Laboratory results reported in patent publication EP1226824A1, “Use of thalidomide for the treatment of hepatocellular carcinoma” (TTY Biopharm Company Limited, priority 2001, dated 2002).

Experiments:
[1] = test system: angiogenesis; conditions: prior art statement; cited from earlier work
[2] = in water, methanol, ethanol or acetone; cited from earlier work
[3] = test system: tumor necrotic factor-alpha (TNF-I); conditions: prior art statement; cited from earlier work
[4] = test system: basic fibroblast growth factor-induced angiogenesis; conditions: prior art statement; cited from earlier work
[5] = test system: hepatocellular carcinoma
[6] = test system: metastatic and locally advanced hepatocellular carcinoma; experiment: thalidomide treatment of two patients with metastatic and locally advanced hepatocellular carcinoma (Example 3); assay type: in vivo; conditions: thalidomide 100 mg twice daily, tested every 2-4 weeks
Method: Thalidomide was administered 100 mg twice daily. They were subjected to serum alpha-fetoprotein test every 2-4 weeks and computed tomography or magnetic resonance image examination every 4-8 weeks.

**Q.** With `O=C1CCC(N2C(=O)c3ccccc3C2=O)C(=O)N1` (stereo not shown) [thalidomide, 2-(2,6-dioxo-3-piperidinyl)-1H-isoindolle-1,3(2H)-dione] as the compound, how does the inhibition of angiogenesis [1] read?
**A.** The inhibition of angiogenesis was “effectively inhibit angiogenesis”.

**Q.** And the solubility [2]?
**A.** The solubility was “sparingly soluble”.

**Q.** And the “inhibition of tumor necrotic factor-alpha (TNF-I)” value [3]?
**A.** Its value is “effectively inhibit”.

**Q.** And the “inhibition of basic fibroblast growth factor-induced angiogenesis” value [4]?
**A.** The value was “effectively inhibit”.

**Q.** And the “right upper quadrant tenderness” value ([5]; after two weeks of thalidomide 100 mg twice daily)?
**A.** The value was “significantly relieved”.

**Q.** And the “side effects, such as arrest of bone marrow or hepatotoxicity” value ([5]; human, in vivo)?
**A.** Its value is “without significant side effects”.

**Q.** And the “serum alpha-fetoprotein level (Figures 6 and 7)” value [6]?
**A.** Its value is “significant reduced”.
